B1: chr1:165697036:165697037:-_ENSG00000143183_ENST00000464650|hu_hu|motif|central (ssRNA)
RNA: GGGAGUUCUACAGUCCGACGAUCUGAAACAAGAAGGAUGCUAUUUGUUUUUCAUUACAUAAACAUUACCUGAACUUAACGGAUCAAUCCACUUAUUUGAUAAAAAUCAUCUAGGACCAAAAGCACUAUCAAGUUUGCUGGCUGCAACAGAGGAUUGAGCAUCA
B2: chr13:108516651:108516652:-_ENSMUSG00000032846_ENSMUST00000105097|mus_mus|FALSE|FALSE (ssRNA)
RNA: GGGAGUUCUACAGUCCGACGAUCAUCGUGUGCCAUUAGGAAGGUCUCUCGGGCCUUGCUGAGGAACUCGAUAAACUCGCUAUAGUGCCGAGGACUGAUGUGUGUGAGGCGUGAGUGCGUUGUGUUGAUAUAGGCCCCGAUCGUCAACAGAGGAUUGAGCAUCA
B3: 111597692_111597812_5853_3pUTR_ENSG00000170145_ENST00000304987|human|control|control (ssRNA)
RNA: GGGAGUUCUACAGUCCGACGAUCCUGUCGGGCUAACAUGCUGUUUGCCUUACAGGGACCAGUGUAUCAGUUGCGUGGAGAUACUAGAGACACACUUGCCCAGCUGGGAAUUGCAGAGCUAGUGCAUUUCUCCCAAAGCACAGACAACAGAGGAUUGAGCAUCA
B4: chr1:60041781:60041782:+_ENSMUSG00000041040_ENSMUST00000036540|mus_hu|mus_mus_mus_hu_False|68_98 (ssRNA)
RNA: GGGAGUUCUACAGUCCGACGAUCAAGUUUACAAUAGCUCAACUUUAGCAGUAGUGGCAAAUUUUCUUUACUUUAGUUUCACAAAAGAAAAUCUUUAUAACCCAGUCCUAGUCUUGGACAUAGUGAAAGCUAUAAAUUCUGACUCAACAGAGGAUUGAGCAUCA
B5: chrX:131284163:131284164:-_ENSMUSG00000050394_ENSMUST00000052431|mus_hu|FALSE|FALSE (ssRNA)
RNA: GGGAGUUCUACAGUCCGACGAUCGGGGCUCGUGUUUCUAGCCAUUGAGAGGCUGGCCAAAUGGCUAUUGAUAUCCUGGCUAAAUGGAAAGCCCGCAUCCUUGGGCUCGGCAAACAACAGUUUUCCCUGAAUGAAAAGACACUUCAACAGAGGAUUGAGCAUCA
B6: chr1:220276048:220276049:+_ENSG00000067704_ENST00000302637|hu_hu|hu_hu_hu_mus_True|1_8 (ssRNA)
RNA: GGGAGUUCUACAGUCCGACGAUCGCAAAUUGCCUGGUUGGCGGGAAUUGUCCAAGGCUGGGUGGUCCAAACUAAAACGCUAACAGGGGAUGAGGCAUCUGUAAGAGACUCCAACUUCGGAGGAGGUUUUAAGAGAGGAAAUUUCAACAGAGGAUUGAGCAUCA
B7: chr12:76453654:76453655:-_ENSG00000187109_ENST00000548044|hu_hu|FALSE|FALSE (ssRNA)
RNA: GGGAGUUCUACAGUCCGACGAUCUGGUUUCCAUUCACAUUCUUCUUCCGUAGGUUCAUAAAUUGCAUUAAUAAUUUCAAAUCGCUUAUCAAAUAGAGGCUGAUAGAGAACAGCAUACUUCCUUUCAAGAUCGUGAACUUCCUCCAACAGAGGAUUGAGCAUCA
B8: chr4:17845017:17845018:+_ENSG00000109805_ENST00000514176|hu_mus|hu_hu_hu_mus_False|8_48 (ssRNA)
RNA: GGGAGUUCUACAGUCCGACGAUCGCUCUCUUAACUUGUAUCUUCAUUAAGGAACUCUGCAAGGUUAAGUUUACUUUUCUGUAGCGCGCGGUUUUGGGCUCGUCUGGGUAAUCUCAUCUUCAUUUCUAUUCUGGUUCCAUGAUCCAACAGAGGAUUGAGCAUCA
B9: chr1:109605286:109605287:-_ENSG00000197780_ENST00000461096|hu_mus|hu_hu_hu_mus_True|58_58 (ssRNA)
RNA: GGGAGUUCUACAGUCCGACGAUCAAGUUUCAGAGUAACAUUCAGUAACCUCUUUAAAUGCAAUUAUCCUUAUUAUAAACUAAGGGCAAUAAUAAUUUAAUACCGUAAGUGAACUACACACAAAGCCUGAACCGCGAAAAUGGUCAACAGAGGAUUGAGCAUCA
B10: chr15:57879074:57879075:-_ENSMUSG00000022361_ENSMUST00000070143|mus_mus|motif|central (ssRNA)
RNA: GGGAGUUCUACAGUCCGACGAUCCCAGCUGUCUGUGUGAAGAAAUCAGCAAAUUGCAGCAUUUGGGAAUUGCUAAUAAAGCGGUAGUUAAAAAAUAAAAAGUUUAUCAAAAUGAAAGCAGCAUGCAUAGUCAAGGCUUUAUCACAACAGAGGAUUGAGCAUCA
B11: 79847204_79847324_1893_3pUTR_ENSG00000127955_ENST00000351004|human|control|control (ssRNA)
RNA: GGGAGUUCUACAGUCCGACGAUCUAUACAUAUAAUCUAGAUAAGGGCUGUAAUGUUUCCUAAUAUUAAUUACUGUACUUAAAAAUUUACAGGACAUGAACAUAAAUAAAGCUGUUUAAAACUGGCAAACGUAGUAAUAGUCUGCAACAGAGGAUUGAGCAUCA
B12: chr5:137537078:137537079:-_ENSG00000094880_ENST00000394886|hu_hu|FALSE|FALSE (ssRNA)
RNA: GGGAGUUCUACAGUCCGACGAUCAAAUCCAUCAAGUUCUCGAGCUUGGUGUUUUUUGCUGAGCUCCACUCUCAAUUCUCUAAGCGCCUCAUUUUUCACUUGUCCUUUUUCCAGGGGGCCUAAGCUAUCAACUGUUUCAUCGUCCAACAGAGGAUUGAGCAUCA
B13: chr2:187371472:187371473:+_ENSG00000065548_ENST00000337859|hu_hu|FALSE|FALSE (ssRNA)
RNA: GGGAGUUCUACAGUCCGACGAUCACUGGCUACAGUAAUACCUGUUUCAUCUACAUCUCUUGGGAUGUACAGGCUUAAAUCUAUGUCAUUUACACUCACUGAAUCAUCAACCUCAUCACCACCUGUUCCCUGGGUGUAGCGGGUCAACAGAGGAUUGAGCAUCA
B14: chr16:94690093:94690094:+_ENSMUSG00000040785_ENSMUST00000117648|mus_hu|mus_mus_mus_hu_True|58_88 (ssRNA)
RNA: GGGAGUUCUACAGUCCGACGAUCGGGCUGGGAUGACGGACACACAGAUCUUCCCAGAGGGGGAAAAAGUCUUAGUCAAUACUAAUUAAAAAGUGUUAAUGAUUUUUGAAAAUCAGAUUACAUCUAUAAAAGAUGAAAAGCAAACAACAGAGGAUUGAGCAUCA
B15: chr17:24706804:24706805:+_ENSMUSG00000032855_ENSMUST00000035565|mus_mus|FALSE|FALSE (ssRNA)
RNA: GGGAGUUCUACAGUCCGACGAUCGCAAUCUUGCUUGAGAAAAUCCACCUCAGGAGGGCAGGCAUCCUCGAAGGGAGCACUAAUAUUGCCCCCAAACCACUGAGCUGUGGCAGUGGCAUUAGCACCAGAAUCUACCUGAAGCACCAACAGAGGAUUGAGCAUCA
B16: chr4:115894766:115894767:+_ENSMUSG00000028698_ENSMUST00000030464|mus_hu|FALSE|FALSE (ssRNA)
RNA: GGGAGUUCUACAGUCCGACGAUCUUCCACACGGAAAUGUACUUCGGGUUUUCCAACGGCCAGUACCAGUCCGGCCAAACUACCCGAACAGGGUCCUCCCCCUCUCUCCUACAGAACACAACAAAAUGCCCCCGAACUUUCAAGCAACAGAGGAUUGAGCAUCA
B17: chr1:58468927:58468928:-_ENSMUSG00000026034_ENSMUST00000148330|mus_mus|mus_mus_mus_hu_False|8_28 (ssRNA)
RNA: GGGAGUUCUACAGUCCGACGAUCAAUUACUGAAAAAGAUGUUCAUUACCUUAGCUAUGUACUUAAUGAACCAAAUUACCCAAACAAAAUAAACAUGGCAAUAUAAAAAGCUAUACAAUUUACAAAGAUUAAAAGCUUAACUUACAACAGAGGAUUGAGCAUCA
B18: chr5:22955990:22955991:+_ENSMUSG00000029004_ENSMUST00000094962|mus_mus|motif|central (ssRNA)
RNA: GGGAGUUCUACAGUCCGACGAUCUGCAUUGGUAUCCAAAAUACUGGGGCAUGCCAGCCACAGUGCUCAUUGCAAACAUCGGAGUGCAUCCACAAACCCUGUGAUGGUCACACACCAGACACCCGAACCCUGUUAUCGGCUCGACAACAGAGGAUUGAGCAUCA
B19: chr12:39763582:39763583:-_ENSG00000139116_ENST00000544797|hu_mus|hu_hu_hu_mus_False|28_108 (ssRNA)
RNA: GGGAGUUCUACAGUCCGACGAUCCUCUAAGAAUUGGGCAUUCACUUUGAAUUCAGGAGGGGGCAGCCCGUUUUUAAUCGCUGAGGUCUUUUUCUCAUCAAUACUCUUAAAAAGGUGUCUAACAGCACGAGAGAUGAUGCCCUGCAACAGAGGAUUGAGCAUCA
B20: chr12:67699843:67699844:+_ENSG00000111530_ENST00000544619|hu_mus|motif|central (ssRNA)
RNA: GGGAGUUCUACAGUCCGACGAUCAAUAAACUGACCUACUACGGCGGGUCCCUCUUUAGGGCAAGCUCGAGUAAGGGCAGCGGCACAUUUGGCAAUGGAAUAAUAAGACUGCUUAUGAGUGAGAGCAGUGCUCUGAGAAUAAACCAACAGAGGAUUGAGCAUCA
B21: chr7:137662931:137662932:-_ENSMUSG00000030850_ENSMUST00000033139|mus_hu|FALSE|FALSE (ssRNA)
RNA: GGGAGUUCUACAGUCCGACGAUCAGCGGCUGCCCGACUCGUUCUUGCAGUAGCCGCAGCGGUAGAAGUCCUCGCUAGGGAAAUAGUCCACGACGCUGGGCGAACCCCCCGCCCAGAAAGCCAUGGCCUCGGCCCCGCGAACGCCAACAGAGGAUUGAGCAUCA
B22: 25283613_25285330_294_5pUTR_ENSMUSG00000033569_ENSMUST00000126626|mouse|control|control (ssRNA)
RNA: GGGAGUUCUACAGUCCGACGAUCAGAGGCCACUGCCUACUAUGAGGGUAACUGAGGGGGUACCAGAGGAUUCCAUGACUAUUUCUCUAGGUUGCUGAGCCAAAAUGGCGAAGGUAGAGAGCCGAUCACAUAAGCAUUUCGUAUCAACAGAGGAUUGAGCAUCA

The other results are listed elsewhere or left out.

The target of the assay is T1, UNK ZnF1-3 (human, UniProt Q9C0B0 31-174).
T1 sequence: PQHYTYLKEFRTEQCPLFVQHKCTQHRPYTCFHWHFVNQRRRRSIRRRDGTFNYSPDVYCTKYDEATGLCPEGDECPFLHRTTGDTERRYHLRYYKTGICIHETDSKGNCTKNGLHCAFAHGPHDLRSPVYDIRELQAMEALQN
In words: nsRBNS (natural sequence RNA bind-n-seq); RBNS binding buffer (assumed for nsRBNS): 25 mM Tris pH 7.5, 150 mM KCl, 3 mM MgCl2, 0.01% Triton X-100, 500 ug/ml BSA, 20 U/ml SUPERase-In, 4 C; UNK is unkempt and MSI1 is Musashi-1; names of the RNAs are library labels; protein concentration not given here; high values mean tight binding.
As for B1, the binding signal came out at 0.95 enrichment R.

In the case of B2, the binding signal turned out to be 1.09 enrichment R. In turn, B3 gave a binding signal of 0.611 enrichment R. As for B4, the binding signal was determined as 0.538 enrichment R. With B5, the binding signal turned out to be 1.05 enrichment R. Turning to B6, the binding signal was determined as 2.7 enrichment R.

As to B7, the binding signal is 1.57 enrichment R. In turn, B8 came in with a binding signal of 0.365 enrichment R. B9: the binding signal came out at 0.924 enrichment R.

Molecule B10 displayed a binding signal of 2.65 enrichment R.

As to B11, the binding signal is 1.58 enrichment R. With B12, the binding signal was 0.532 enrichment R. In the case of B13, the binding signal was 0.618 enrichment R. In turn, B14 gave a binding signal of 1.62 enrichment R.

Molecule B15 showed a binding signal of 1.5 enrichment R. B16 displayed a binding signal of 1.06 enrichment R. Take B17: the binding signal turned out to be 0.759 enrichment R. The value for B18 was 1.26 enrichment R; that for B19 was 2.01 enrichment R; that for B20 was 1.23 enrichment R. In turn, B21 showed a binding signal of 0.741 enrichment R. The value for B22 was 1.45 enrichment R.

These data come from publication PMC12136788.
